According to PubChem BioAssay (NCI):
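1) Cells in 96-well plates. 2) Compound, 48 h, 5 concentrations. 3) Linear interpolation between surrounding doses. 4) Unreached endpoint = highest concentration. GI50 = concentration required for 50% inhibition of growth. TGI: concentration producing complete growth inhibition.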

These compounds were tested on NCI-H322M lung (assay: DTP human tumour cell line panel, 48 h).

Structure (SMILES) | GI50 [µM] | TGI [µM]
N#Cc1c(-c2cccs2)cc(-c2cnccn2)nc1SCC(=O)N/N=C/c1ccccc1 | 4.88 | 21
CC(=C(c1ccc(OCCN2CCCC2)cc1)c1ccc(OCCN2CCCC2)cc1)c1ccc(Cl)cc1 | 2.63 | 4.94
CN(C)c1ccc(/C=N/Nc2nc(N/N=C/c3ccc(N(C)C)cc3)nc(N3CCCCC3)n2)cc1 | 2.87 | > 100
